Assay results taken from EP0949243A1, “OPTICALLY ACTIVE METHOXYIMINOACETAMIDE DERIVATIVES, PROCESS FOR THE PREPARATION OF THEM, INTERMEDIATES THEREFOR, AND PESTICIDES CONTAINING THEM AS THE ACTIVE INGREDIENT” (MITSUBISHI CHEMICAL CORPORATION, priority 1996, dated 1998).

Legend:
[1] = tested on: green peach aphid; settings: in vivo
[2] = tested on: two-spotted spider mite; assay: Acaricidal effect against two-spotted spider mite (Test Example 10); type: in vivo; settings: female adults on kidney bean leaf disks, sprayed, 2 days at 25 ± 1°C; mixtures 1:1
From the text: A leaf disk of 2 cm in diameter was cut off using a leaf punch from the first leaf of a kidney bean (variety: Kintoki) raised in a pot of 15 cm in diameter, and each of 8 leaf disks thus prepared was arranged on wet absorbent cotton which was put on a plastic cup of 8 cm in diameter. A total of 5 female adults of two-spotted spider mite were inoculated on each leaf disk.

[3] = tested on: diamond back moth; assay: Insecticidal effect against diamond back moth (Test Example 11); type: in vivo; settings: second instar larvae, cabbage leaf soaked, after 4 days at 25°C; mixtures 1:1
Procedure: After thoroughly air-drying the chemical solution on the leaf surface, the leaf was put into a round cup (8 cm in diameter) (one leaf piece/round cup) together with five second instar larvae of diamond back moth and then kept in a constant temperature room of 25°C.
The evaluation was made by examining the number of live larvae, larvae in agony and dead larvae after 4 days of the treatment and calculating their death rate in the same manner as described in Test Example 9.

[4] = tested on: CD rats (female); assay: Oral acute toxicity test using rats (Test Example 3); settings: single oral dosage of 300, 600, 1,200, 2,500 or 5,000 mg/kg

| SMILES | LC50 value (ppm) [1] [ppm] | LC50 value (ppm) [2] [ppm] | LC50 value (ppm) [3] [ppm] | also measured |
| --- | --- | --- | --- | --- |
| O=[N+]([O-])NC1=NCCN1Cc1ccc(Cl)nc1 [Known compound l, 1-(6-chloro-3-pyridylmethyl)-N-nitroimidazolidin-2-ylideneamine] | 0.23 |  |  |  |
| Cc1ccc2nc3sc(=O)sc3nc2c1 [Known compound p, 6-methylquinoxaline-2,3-dithiocarbonate] |  | 89.0 |  |  |
| CCOCn1c(-c2ccc(Cl)cc2)c(C#N)c(Br)c1C(F)(F)F [Known compound m, 4-bromo-2-(4-chlorophenyl)-1-ethoxymethyl-5-trifluoromethylpyrrole-3-carbonitrile] |  | 3.0 |  |  |
| CCc1ccc(C(=O)NN(C(=O)c2cc(C)cc(C)c2)C(C)(C)C)cc1 [Known compound h, N-tert-butyl-N'-(4-ethylbenzoyl)-3,5-dimethylbenzohydrazide] |  |  | 23.0 |  |
| O=C(NC(=O)c1c(F)cccc1F)Nc1cc(Cl)c(F)c(Cl)c1F [Known compound g, 1-(3,5-dichloro-2,4-difluorophenyl)-3-(2,6-difluorobenzoyl)urea] |  |  | 0.29 |  |
| CNC(=O)C(=NOC)c1ccccc1C=NO[C@@H](C)c1cccc(C(F)(F)F)c1 (single isomer, unassigned) [compound 2] | 450 | 1900 | 260 | mortality [4]: no mortality |
| CCc1nn(C)c(C(=O)NCc2ccc(C(C)(C)C)cc2)c1Cl [Known compound k, N-(4-tert-butylbenzyl)-4-chloro-3-ethyl-1-methylpyrazole-5-carboxamide] | 20.0 |  |  |  |
| OC(c1ccc(Cl)cc1)(c1ccc(Cl)cc1)C(Cl)(Cl)Cl [Known compound n, 2,2,2-trichloro-1,1-bis(4-chlorophenyl)ethanol] |  | 19.0 |  |  |
